Test results as given in the supplement of paper PMC9513381.
Recombinant human monoclonal antibodies (heavy:light variable regions). ELISA EC50 on the named antigen, from 10 µg/ml down; IC50 / IC90 against spike pseudovirus on 293T-ACE2 cells, 48 h; lower = stronger. Calls: IC50 above 1,000 ng/ml = non-neutralizing; EC50 above 1,000 ng/ml = non-binder. The source prints 1000 for neutralization that was not reached; it is given as >1000 ng/ml. Only binders of the Wuhan-Hu-1 domain have neutralization values.

What was measured:
[1] = target: SARS-CoV-2 Wuhan-Hu-1 spike pseudovirus; assay: pseudovirus neutralization IC50; higher = weaker neutralization
Description: (§1)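 Single-round luciferase reporter pseudovirus mixed with antibody dilutions and put on 293T-ACE2 cells for 48 h; signal relative to no-antibody wells, four-parameter fit.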

[2] = target: SARS-CoV-2 Wuhan-Hu-1 spike pseudovirus; assay: pseudovirus neutralization IC90; higher = weaker neutralization
Description: as §1

[3] = target: SARS-CoV-2 Delta (B.1.617.2) spike RBD; assay: ELISA binding EC50; higher = weaker binding; ELISA of recombinant human antibody on coated antigen, from 10 µg/ml in fourfold dilutions; four-parameter fit.
[4] = target: SARS-CoV-2 Omicron BA.1 spike protein; assay: as above
[5] = target: SARS-CoV-2 Wuhan-Hu-1 spike receptor-binding domain; assay: as above

Binder	pseudovirus neutralization IC50 [1]	pseudovirus neutralization IC90 [2]	ELISA binding EC50 [3]	ELISA binding EC50 [4]	ELISA binding EC50 [5]
B1112 (protein) chain 1: QVQLQESGPGLVKPSETLSLTCSVSGGSMNNYYWSWIRQPPGKGLEWIGYIEYSGSTNYNPSLKSRVTISVDTAKNQFSLKLRSVTAADTAVYYCARVATFSITFGGVITDYYNYYMDVWGKGTAVTVSS chain 2: EIVLTQSPGTLSLSPGESATLSCRARHSISSNYLAWYQQKPGQAPRLLIYGVSSRATGIPDRFSGSGSGTDFTLTISRLEPEDFAVYYCQQYAGTPLTFGGGTKVEIK	0.146 µg/mL	> 1 µg/mL	0.0294 µg/mL	0.0272 µg/mL	0.00241 µg/mL
B2054 (protein) chain 1: VQLVESGGGVVQPGRSLRLSCAASGFTFRTYAMHWVRQAPGKGPEWLAVISDDGSIKYYADSVQGRFTISRDNSESTLYLQLNSLRAEDTAVYYCATEGMTGLVIYFDFWGQGTLVTVSS chain 2: DIQLTQSPSSLSASVGDRVTLTCRASQSIGNYLNWYQQKPGKAPKLLIYAASSLQSGVPSRFSGSGSGTDFTLTISSLQPEDFATYYCQQSYSTSEYTFGQGTKLEIK	> 1 µg/mL	> 1 µg/mL	0.00767 µg/mL	0.0423 µg/mL	0.00339 µg/mL
B1118 (protein) chain 1: EVQLVQSGAEVKKPGESLKISCKASGYSFTTYWIGWVRQMPGKGLEWMGIIYPGDSDARYSPSFQGQVTFSVDKSITTASLQWSSLKASDTAMYYCARSRSGDYFDYWGQGTLVTVS chain 2: AIQLTQSPSSLSASVGDRVTITCRASQGISNGLAWYQQKPGNAPKLLIYDASNLESGVPSRFSGSGSVTDFTLTISSLQPEDFATYYCQHFKSYPFTFGPGTKVDIK	> 1 µg/mL	> 1 µg/mL	0.0219 µg/mL	0.0081 µg/mL	0.00368 µg/mL
B2052 (protein) chain 1: EVQLVQSGAEVKKPGESLRISCKGSGYSFPSYWITWVRQMPGKGLEWMGRIDPSDSYTDYSPSFQGHVTISVDKSINTAYLQWSSLKPSDTAKYYCARDQQHLLTFTGMDVWGQGTTVTVSS chain 2: DIQMTQSPSTLSASVGDRVTITCRASQSISSWLAWYQQKPGKAPKLLMYKASTLESGVPSRFSGSGSGTEFTLTISSLQPDDFATYYCQHYNAISRTFGQGTKVEIK	0.0257 µg/mL	0.341 µg/mL	0.00845 µg/mL	0.0225 µg/mL	0.00235 µg/mL
B1110 (protein) chain 1: EVQLVESGGALQQPGRSLTLSCAASGFTFEDYAMHWVRQAPGKGLEWVSGITWTGGMIDYADSVKGRLIISRDNAKKSLYLHMRGLRPEDTALYYCARGSRSGSYHLRDHFYGMDVWGQGTTVT chain 2: EIVLTQSPGTLSLSPGERATLSCRASQSVNSNYLAWYQQKPGQAPRLLIYGASSRATGIPDRFSGSESGTDFTLTISRLEPEDFAVYYCQQYGFSAWTFGQGTKVEIK	0.832 µg/mL	> 1 µg/mL	> 1 µg/mL	> 1 µg/mL	0.00388 µg/mL
B1120 (protein) chain 1: EVQLVESGGGLVQPGGSLRLSCAASGFTFSSDDMHWVRQVTGKGLEWVSGIGTNSDKYYAGSVKGRFTIFREDAKNSLYLQMNSLRAEDSALYYCTRGVQVVRGVKFYYSMDVWGKGTTVTVS chain 2: DIQMTQSPSSLSASVGDRITITCRASQTISSYLNWYQQKPGKAPKLLIYAASSLQSGVPSRFSGSGSGTDFTLTISSLQPEDFATYYCQQSYSNPPESSFGQGTKLEIK	> 1 µg/mL	> 1 µg/mL	0.00958 µg/mL	0.0374 µg/mL	0.0028 µg/mL
B1113 (protein) chain 1: QVQLVQSGAEVKKPGSSVKVSCKASGDTFSTSAFNWVRQAPGQGLEWMGEIIPTFDTSTYAQKFQGRVTITADKSTSTVYMELSSLRSEDTAVYFCARVPGFYSGHFDSWGQGTLVTVSS chain 2: DIQMTQSPSSLSASVGDRVTITCQASQDMSNYLNWYQQKPGKAPKLLIYDVFNLEAGVPSRFSGSRSGTDFTLTISSLQPEDIATYYCQHYDNLSSYSFGQGTKLEIK	> 1 µg/mL	> 1 µg/mL	0.0158 µg/mL	0.011 µg/mL	0.00379 µg/mL
B2004 (protein) chain 1: QVQLQESGPGLVKPSQTLSLTCTVSGGSVRSGGYYWSWIRQPPGKGLEWIGYIYYSGNTFYLPSLQSRVTISVDMSKNQFSLRLSSVTAADTAVYYCARDQHESHYGSGPSGRIDSWGQGTLVTVSS chain 2: IRMTQSPSSLSASVGDRVTITCQASQDINNYLNWYQQKPGKAPKVLIYDASNLETGVPSRFSGSGSGTDFTFTISNLQPEDIATYYCQQYDNLPLTFGGGTKVEIK	0.0455 µg/mL	0.464 µg/mL	0.506 µg/mL	0.00895 µg/mL	0.00407 µg/mL
B1119 (protein) chain 1: EVQLVESGGGLVQPGGSLRLSCAASGFTFSNDDMHWVRQASGKGLKWVSAIGTAGDRYYADSVKGRFTISRENAKNSFYLQMNDLRAEDTAVYYCARGVHERIDYYYYYYMDVWGKGATVIVS chain 2: DIQMTQSPSSLSASVGDRVTITCRASQSISRYLNWYQQKPGKAPKLLIHAASSLQSGVPSRFSGSGSGTDFTLTISSLQPEDFATYYCQQSYSSPPWTFGPGTKVEIK	> 1 µg/mL	> 1 µg/mL	0.0637 µg/mL	0.114 µg/mL	0.00301 µg/mL
B2056 (protein) chain 1: EVQLVQSGAEVKKPGESLKISCQGSGHIFTRYWIAWVRQMPGKGLEYMGIIYPPDSDTTYSPSFQGQVTISADKSISTAFLQWSSLKASDTAIYYCATLPRGPKSGDPFDIWGQGTMVTVSS chain 2: DIQLTQSPSSLSASVGDRVTITCRASESISSYLNWYQQKPGKAPELLIYAASSLQSGVPSRFSGSGSGTDFTLTISSLQPEDFATYYCQQSYSTPPTFGQGTKLEIK	> 1 µg/mL	> 1 µg/mL	0.031 µg/mL	0.00746 µg/mL	0.00213 µg/mL
B2055 (protein) chain 1: QVQLQESGPGLVKPSQTLSLTCTVSGVSITSGGNYWTWIRQFPGKGLEWIGYIDYSGSAFFNPSLKSRFAMSLDTSNNQFSLTVNSVTAADTAVYYCAREIRLLELQGNVFDTWGQGTMVTVSS chain 2: DIQMTQSPSSLSASVGDRVTITCQASQDSTNCLNWYQQKPGKAPKLLIYDASNLGTGVPSRFSGRGSGTDFTLTISSLQPEDIATYYCQQYENLPYTFGQGTKLEIK	0.00351 µg/mL	0.0204 µg/mL	0.0166 µg/mL	0.023 µg/mL	0.0025 µg/mL
B2053 (protein) chain 1: VQLVESGGGVVQPGMSLRLSCTASGFTFSNYAVHWVRQAPGKGLEWVAIVSNDGKIKFYADSVKDRFTISRDNSKNTLFLQMNGLRSDDTAVYYCARDREELSYWSLDYWGQGTLVTVSS chain 2: DIQMTQSPSSLSASVGDRVTVTCRASQSIRTYLNWYQQKPGKAPKLLIYAASNLQSGVPSRFSGSGSGTDFTLTISSLQREDFATYFCQQSYSTPPLTFGGGTRVEIK	0.213 µg/mL	> 1 µg/mL	0.0132 µg/mL	0.00793 µg/mL	0.00105 µg/mL
B1121 (protein) chain 1: EVQLVESGGGLIQPGGSLRLSCAASGIIVSSNYMTWVRQAPGKGLECVSLIYPGGSTFYPDSVKGRFTISRDNSKNILYLQMDSLRAEDTAVYYCARSYVDYYMDVWGKGTTVTVSS chain 2: EIVMTQSPATLSVSPGERATLSCRASQSVSSNLAWYQQKPGQAPRLLIYGASTRATGIPARFSGSGSGTEFTLTISSLQSEDFAVYYCQHYNNWWTFGQGTKVEIK	0.00856 µg/mL	0.0619 µg/mL	0.0312 µg/mL	> 1 µg/mL	0.00253 µg/mL
B1116 (protein) chain 1: QVQLVESGGGVVQPGRSLRLSCAASGFTFNRHAIHWVRQAPGKGLEWLGVISNDGAIKSYPDSVKGRFTISRDNSRNTLYLQMNSLRTEDTAVYYCARDQEALTPIFDYWGQGTLVTVSS chain 2: DIQMTQSPSSLSASVGDRVTITCRASQSISSYLNWYHQKPGKAPKLLIYNAASLQSGVPSRFSGSGSGTDFTLTISSLQPEDFATYYCQQSYNTPPITFGQGTRLE	0.851 µg/mL	> 1 µg/mL	0.0145 µg/mL	0.041 µg/mL	0.00325 µg/mL
